Measurements: ChEMBL document CHEMBL1201862, “PubChem BioAssay data set” (2004)
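Five concentrations, 48 hours, 96-well plates. GI50 = concentration required for 50% inhibition of growth.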 Calls of active or inactive are those of the source. No stated cut-off is given here; in the data, active = GI50 up to about 1.1 µM and inactive = higher.

Each compound was assayed on NCI-H322M (assay: NCI-60 cell line screen, 48 h).

SMILES	GI50
O=[N+]([O-])c1ccc(Nc2nc3ccccc3s2)cc1	inactive: 36.1 µM
Oc1cc(-c2ccco2)nc2cc3c(cc12)OCO3	inactive: > 100 µM
C=C(C)CNCCN	inactive: > 100 µM
OC(c1ccccc1)(c1ccccc1)c1ccncc1	inactive: > 100 µM
CN(C)CCNC(=O)c1cccc2nc3cccc(F)c3nc12	inactive: 1.87 µM
Cc1ccc(N(O)C(C)(C)C)cc1	inactive: > 100 µM
O=C(NCP(=O)(c1ccccc1)c1ccccc1)OCc1ccccc1	inactive: 77.3 µM
COc1ccc2nc(/C(N)=C\C#N)ccc2c1	inactive: > 100 µM
Cc1cc2c(c(C(N)=O)c1C)-c1cccc(Cl)c1C2=O	inactive: > 100 µM
COc1cc(S(=O)(=O)Nc2ccc(-c3csc(/N=C\c4ccccc4)n3)cc2)ccc1Cl	inactive: 65 µM
C=CCN1C(=O)C[C@H](Cc2ccccc2)NC(=O)C[C@H](Cc2ccccc2)N(CC=C)C(=O)C[C@H](Cc2ccccc2)NC(=O)C[C@@H]1Cc1ccccc1	inactive: 20.7 µM
Cc1cc(=O)[nH]c2c1C(=O)c1c(C)cc(=O)n(C)c1C2=O	active: 0.0159 µM
O=c1cc(NNc2ccccc2F)[nH]c(=O)[nH]1	inactive: 27.2 µM
O=C1CC(=O)n2cnc3cccc(c32)N1	inactive: > 100 µM
COc1ccc(/C(CC2OC(=O)c3ccccc32)=N\NC(N)=O)cc1 (centres undefined)	inactive: > 100 µM
CCc1nc2ccc(/N=N/N(C)C)cc2[nH]1	inactive: > 100 µM
CC(=O)CC(=O)ON(C)C(C)=O	inactive: > 100 µM
O=C1/C(=C/c2cc3c(=O)c4ccccc4sc3s2)NC(=S)N1c1ccccc1	inactive: > 100 µM
COc1ccc2ccc3c(c2c1)CN1CCc2cc(OC)c(OC)cc2C1C3 (centres undefined)	inactive: > 100 µM
CC[C@@]1(O)C(=O)OCc2c1cc1n(c2=O)Cc2c-1nc1ccccc1c2/C=N\NC(=O)CN	inactive: 2.7 µM
O=P(O)(OCC(O)O)OCC(O)O	inactive: > 100 µM
O=C(O)c1cccc2cccc(-c3c4ccc(=O)cc-4oc4cc(O)ccc34)c12	inactive: > 100 µM
O=c1cc(CO)oc(C(O)c2ccccc2)c1O (centres undefined)	inactive: > 100 µM
COC1CC(OC2C(C)OC(OC3C(C)OC(OC4C(C)OC(O[C@H]5CC[C@@]6(C)C(=CC[C@]7(O)[C@@H]6C[C@@H](O)[C@@]6(C)[C@]7(O)CC[C@@]6(O)C(C)=O)C5)CC4OC)CC3OC)CC2OC)OC(C)C1O (some centres undefined)	inactive: > 12.5 µM

SMILES	GI50
CCN(CC)CC(=O)O[C@]1(CC)C(=O)OCc2c1cc1n(c2=O)Cc2cc3ccccc3nc2-1	active: 0.0723 µM
C=CCc1cc(-c2n[nH]c(=S)[nH]2)ccc1N/N=N/c1ccc(C(=O)O)cc1	inactive: > 100 µM
CCOC(=N)CC(=O)NC(C)c1ccccc1 (centres undefined)	inactive: > 100 µM
CN(C)CC/C(=N\Nc1ccc(Cl)c(Cl)c1)c1ccccc1	inactive: 4.91 µM
COC(=O)c1cnc(Cl)c([N+](=O)[O-])c1	inactive: 15.2 µM
NC(=O)NC(=O)c1cccc(CNc2ccc(C(=O)N[C@@H](CCC(=O)O)C(=O)O)cc2)n1	inactive: > 100 µM
Ic1ccc2c(c1)N(c1ccccc1)c1cc([N-]c3ccc4nc5ccc(I)cc5[n+](-c5ccccc5)c4c3)ccc1N2	inactive: > 100 µM
CCCCCCCCCCCCC(Br)C(C)=O (centres undefined)	inactive: > 100 µM
CSc1nc(NC2OC(CO)C(O)C(O)C2O)c(N)c(=O)[nH]1 (centres undefined)	inactive: > 100 µM
c1ccc2c(c1)nc1ccccn12	inactive: > 100 µM
CCC(CC)C(=O)OC[n+]1cccc(-c2c(COC(=O)NC(C)C)c(COC(=O)NC(C)C)c3n2CCC3)c1	inactive: > 100 µM
CC(C)(Cl)C(Br)CCC(C)(Br)C(Br)CBr (centres undefined)	inactive: 23.8 µM
C[N+](C)(C)CCc1ccccc1	inactive: > 100 µM
COc1ccc(N2NC(c3ccccc3)(c3ccccc3)C(C)C2=O)cc1 (centres undefined)	inactive: > 100 µM
O=c1c2ccccc2c2ccccc2c(=O)n1Cc1ccc2c(c1)OCO2	inactive: > 50.2 µM
COc1cc(C2c3cc4c(cc3C(O)C3CCC(=O)N23)OCO4)cc(OC)c1OC (centres undefined)	inactive: 55.3 µM
Cc1cccc(Cl)c1NC(=O)/C=C/c1ccccc1	inactive: 21.9 µM
CCC(C#N)NCc1ccc(CNC(C#N)CC)cc1 (centres undefined)	inactive: > 100 µM
CCOC(=O)c1nc2ccccc2nc1Oc1cc(OC)cc(OC)c1	inactive: > 100 µM
O=C(CBr)N1CCC2(CC1)SSC1(CCN(C(=O)CBr)CC1)S2	inactive: 2.26 µM
CCNc1cc2c3c(c1)CCN3CCC2	inactive: > 10 µM
CC1=NNC(=O)C1C1C(=O)NN=C(c2c[nH]c3ccccc23)C1Br (centres undefined)	inactive: 75.5 µM
CO/N=C1/c2sccc2[C@H](NC(=O)C(Cc2ccccc2)NC(=O)OC(C)(C)C)[C@@H]1O (some centres undefined)	inactive: > 100 µM
CCOC(=O)C1=C(C)N(NC(N)=O)C2(O)CCCC(=O)C12C (centres undefined)	inactive: > 100 µM

SMILES	GI50
C[C@H](CCC(=O)O)[C@H]1CC[C@@]2(C)[C@@H]3C(=O)C[C@H]4C(C)(C)[C@@H](O)CC[C@]4(C)[C@H]3C(=O)C[C@]12C	inactive: > 100 µM
O=[N+]([O-])c1cccc(S(=O)(=O)N/N=C/c2cc(I)cc([N+](=O)[O-])c2O)c1	inactive: 28.5 µM
CC(C)c1cccc(C(C)C)c1NC(=O)/C(Cc1nc2ccc(Cl)cc2nc1O)=N\NC(=O)C[N+](C)(C)C	inactive: > 100 µM
COc1ccc2c(c1OC)C(C=C(c1ccccc1)c1ccccc1)CN(C)C2 (centres undefined)	inactive: 27.4 µM
NS(=O)(=O)c1ccc(NC(=S)N/C=C2\C(=O)Nc3ccccc3C2=O)cc1	inactive: > 100 µM
COc1ccc(CNc2cc(OC)cc(OC)c2)cc1	inactive: 81.5 µM
CNc1nncc2[nH]cnc12	inactive: > 100 µM
COC(=O)CC(c1cn(S(=O)(=O)c2ccc(C)cc2)c2ccccc12)C1C[C@@H](C(=O)OC)N(C(=O)OC(C)(C)C)C1=O (some centres undefined)	inactive: 65.9 µM
Cn1c(=O)c2c(nc3sc4ncccc4c(=O)n32)n(C)c1=O	inactive: > 100 µM
COc1cc(C2SC(=N)Nc3c2c(C)nn3C(=O)Cc2ccccc2)cc(OC)c1OC (centres undefined)	inactive: > 100 µM
Clc1cc2nc(C3CCCCO3)[nH]c2cc1Cl (centres undefined)	inactive: 28.1 µM
CCOc1cc(NC(C)=O)ccc1C(=O)NN1C(=O)C(Oc2ccccc2)C1c1ccccc1 (centres undefined)	inactive: > 100 µM
COC(=O)CN1CCS/C1=N/C#N	inactive: > 100 µM
COC(=O)C1=COC(OC2OC(CO)C(O)C(O)C2O)C2C3CN4CCc5c([nH]c6ccccc56)C4(CC12)O3 (centres undefined)	inactive: > 100 µM
O=C1CC(c2c(-c3ccccc3)[nH]c3ccccc23)C(=O)N1c1ccccc1 (centres undefined)	inactive: 88.3 µM
Brc1c2c(c(Br)c3nsnc13)N=S=N2	inactive: > 89.7 µM
C=C1c2nc3ccccc3n2C=C(c2ccc(Cl)cc2)N1c1ccc(OCCN2CCCCC2)cc1	inactive: > 45 µM
CCN(CC)CCSc1c2cc(OC)ccc2nc2ccc(OC)cc12	inactive: 12.7 µM
S=C1N=C2C(=N1)n1c3c(c4ccccc41)CCCC23 (centres undefined)	inactive: > 100 µM
CS/C(=N\c1ccccc1Cl)NC(=O)c1ccc(Br)cc1	inactive: 63 µM
O=C1OC(c2ccccc2)=N/C1=C\c1ccc(Br)cc1	inactive: > 100 µM
C=CCc1cc(C(Cc2ccccc2)NC(C)C)cc(OCc2ccccc2)c1OCc1ccccc1 (centres undefined)	inactive: 15.3 µM
Cc1nc2c(=O)n3c4c(cccc4c2o1)CCC3	inactive: > 100 µM
N#Cc1c(N)c(-c2ccc(Cl)cc2)c(F)c2ccccc12	inactive: > 100 µM

SMILES	GI50
COc1cc(=O)oc(/C=C/CO)c1C	inactive: > 100 µM
C=C1c2nc3ccccc3n2C=C(c2ccc(OC)cc2)N1c1ccccc1	inactive: > 89.5 µM
CN(CCc1ccc(Cl)c(Cl)c1)CCN(C)CCN1CCCC1	inactive: 10.1 µM
CCCN(CCCC(NC(C)=O)C(=O)NCc1ccccc1)C(=O)NC (centres undefined)	inactive: > 100 µM
COc1ccc(NC(=O)NNS(=O)(=O)c2ccc(C)cc2)cc1	inactive: > 100 µM
O=Cc1c[nH]c2c(=O)[nH]cnc12	inactive: > 100 µM
COc1ccccc1NC(=O)C(CC(C(=O)Nc1ccccc1OC)/C(C)=N/Nc1ccc([N+](=O)[O-])cc1[N+](=O)[O-])/C(C)=N/Nc1ccc([N+](=O)[O-])cc1[N+](=O)[O-] (centres undefined)	inactive: > 100 µM
N#CC(NNC(=O)Cc1ccccc1)c1ccccc1O (centres undefined)	inactive: 11 µM
CC(CN(C)C)C(=O)c1ccccc1 (centres undefined)	inactive: > 100 µM
N#Cc1c(Nc2nc3ccccc3s2)c2ccccc2n2c1nc1ccccc12	inactive: > 100 µM
CCCCCCCCCCCCCCCCCCN(C)CC(COC)OP(=O)([O-])OCC[N+](C)(C)C (centres undefined)	inactive: 6.9 µM
NNc1ncnc2cccc(Cl)c12	inactive: > 100 µM
COc1nc(N)nc2c1n(C)c[n+]2C	inactive: > 100 µM
O=C1CC(S(=O)(=O)O)C=C1Nc1cccc(Cl)c1 (centres undefined)	inactive: > 100 µM
CC(C)=CCC(O)[C@](C)(O)[C@H]1[C@H](O)C[C@@]2(C)[C@@H]3CCc4cc(O)c(OC5OC(CO)C(O)C(O)C5O)cc4C3(C)C(=O)C[C@]12C (some centres undefined)	inactive: > 100 µM
CC(=O)O[C@H]1C(=O)[C@@]2(C)C(C(OC(=O)c3ccccc3)C3[C@@H](O)C(OC(=O)[C@@H](O)[C@H](NC(=O)c4ccccc4)c4ccc(C(F)(F)F)cc4)C(C)=C1C3(C)C)[C@]1(OC(C)=O)CO[C@@H]1C[C@@H]2O (some centres undefined)	inactive: > 25 µM
C/C=C1/CN2CCC3(O)c4ccccc4N4C=C(C(=O)OC)C1CC2C43O (centres undefined)	inactive: > 100 µM
CCOC(=O)c1ccc(N[C@@H]2c3cc4c(cc3C(C3=CC(=O)C(=O)C(OC)=C3)[C@H]3C(=O)OCC32)OCO4)cc1 (some centres undefined)	inactive: 18 µM
CC1CC[C@]2(C(=O)O)CCC3(C)C(=CC(=O)C4[C@@]5(C)CCC(=O)C(C)(C)C5CC[C@]43C)[C@@H]2[C@H]1C (some centres undefined)	inactive: 27 µM
COc1cc2c[n+](C)c3c4cc(OC)c(OC)cc4c(OCc4ccccc4)cc3c2cc1OC	inactive: 2.81 µM
Cc1ccnc2nc(-c3cccc4ccccc34)cc(O)c12	active: 0.042 µM
CCN(CC)CCC(=O)c1ccc(Cl)c(Cl)c1	inactive: > 100 µM
